According to article PMC4336329 (PLoS ONE, 2015):
About 14,000 (4.5%) of roughly 310,000 compounds showed an effect of 50% or more. Effects have a minus sign here. The list shows a part of the results.

biological target: human ether-à-go-go-related gene (hERG) potassium channel (human, UniProt Q12809); assay: primary screen, population patch clamp on CHO cells stably expressing hERG
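Note: peak tail current of the secondary pulse compared with the same well before compound.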

Sequence of human ether-à-go-go-related gene (hERG) potassium channel (Q12809 whole entry, looked up): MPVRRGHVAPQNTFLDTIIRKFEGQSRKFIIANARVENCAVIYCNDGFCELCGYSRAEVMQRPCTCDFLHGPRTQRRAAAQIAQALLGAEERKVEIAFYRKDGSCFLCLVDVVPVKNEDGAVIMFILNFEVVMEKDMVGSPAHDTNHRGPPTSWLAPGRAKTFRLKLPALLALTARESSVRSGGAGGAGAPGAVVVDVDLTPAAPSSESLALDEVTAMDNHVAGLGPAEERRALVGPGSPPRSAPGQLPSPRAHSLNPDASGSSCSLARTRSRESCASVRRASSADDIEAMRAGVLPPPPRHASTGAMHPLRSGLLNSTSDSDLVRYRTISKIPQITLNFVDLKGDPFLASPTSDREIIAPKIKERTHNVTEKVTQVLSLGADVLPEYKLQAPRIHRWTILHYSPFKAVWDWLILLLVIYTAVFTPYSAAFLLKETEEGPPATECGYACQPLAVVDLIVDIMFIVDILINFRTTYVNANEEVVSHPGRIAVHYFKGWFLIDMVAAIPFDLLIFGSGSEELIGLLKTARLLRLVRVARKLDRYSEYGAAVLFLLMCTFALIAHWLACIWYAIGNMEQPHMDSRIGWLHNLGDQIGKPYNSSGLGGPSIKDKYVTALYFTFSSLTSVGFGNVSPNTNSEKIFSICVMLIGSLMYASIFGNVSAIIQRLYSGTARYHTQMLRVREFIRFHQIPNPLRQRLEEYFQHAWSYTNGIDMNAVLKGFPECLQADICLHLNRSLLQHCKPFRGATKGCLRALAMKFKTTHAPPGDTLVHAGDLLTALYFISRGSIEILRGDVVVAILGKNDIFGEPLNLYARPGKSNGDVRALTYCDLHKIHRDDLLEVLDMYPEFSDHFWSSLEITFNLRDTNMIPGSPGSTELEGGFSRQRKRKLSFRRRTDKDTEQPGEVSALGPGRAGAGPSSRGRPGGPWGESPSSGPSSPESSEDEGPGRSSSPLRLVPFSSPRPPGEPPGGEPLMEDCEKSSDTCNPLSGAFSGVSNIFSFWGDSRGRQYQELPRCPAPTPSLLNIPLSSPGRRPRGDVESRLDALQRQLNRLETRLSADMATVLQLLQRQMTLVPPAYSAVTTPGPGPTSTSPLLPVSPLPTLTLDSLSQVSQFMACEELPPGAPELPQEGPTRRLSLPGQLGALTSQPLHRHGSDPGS

Going from `CCC(c1nnnn1Cc1ccc(F)cc1)N(CCCO)Cc1cc2cc3c(cc2[nH]c1=O)OCO3` (stereo not drawn) to `O=C(Cn1ncc2c([nH]c3ccccc32)c1=O)Nc1ccc(F)cc1F`, the “hERG current change (%, negative = inhibition) at 10uM” value rises from -17.5% to 15.3%.

First: C=CCOc1ccc(/C=C/C(=O)OC(C)C(=O)Nc2ccc(NC(C)=O)cc2)cc1 (stereo not drawn)
Second: CCCCOc1ccc(C(=O)N/C(=C/C=C/c2ccccc2)C(=O)NC)cc1
The “hERG current change (%, negative = inhibition) at 10uM” value of the first is higher: 4.6% for the first, -75.2% for the second.

Going from `Cc1cccc(Nc2nc(OCC#N)nc(N(C)C)n2)c1` to `COc1ccc(C(=O)Nc2cccc3nc(C)ccc23)cc1OC`, the “hERG current change (%, negative = inhibition) at 10uM” value falls from 13.7% to 10.2%.

Going from `CC(=O)NC1C(=O)Nc2c(C)cc(C)cc21` (stereo not drawn) to `Cc1cc(NC(=O)Nc2ccc(C)c(C)c2)no1`, the “hERG current change (%, negative = inhibition) at 10uM” value rises from -4.56% to 11.3%.

First: O=C(CN(C(=O)CCC(=O)Nc1nccs1)c1ccc(F)c(Cl)c1)NCC1CCCO1 (stereo not drawn)
Second: O=C(NCCc1ccccc1)C(=O)NCC1OCCCN1S(=O)(=O)c1cc(F)ccc1F (stereo not drawn)
The “hERG current change (%, negative = inhibition) at 10uM” value of the first is higher: 15.4% for the first, -10.8% for the second.

Going from `Cc1ccc(-n2nc3c(=O)n(CCCC(=O)NCc4ccco4)nc(C)c3c2C)cc1` to `Cc1c(NS(=O)(=O)c2ccc(Cl)c(C(=O)OC(C)C(=O)NCc3ccco3)c2)c(=O)n(-c2ccccc2)n1C` (stereo not drawn), the “hERG current change (%, negative = inhibition) at 10uM” value falls from -8.62% to -77.5%.

Going from `COCCCN(C(=S)Nc1cc(Cl)cc(Cl)c1)C(C)c1ccncc1` (stereo not drawn) to `CC(C)CNS(=O)(=O)c1ccc(CCC(=O)Nc2ccc3c(c2)OCCO3)cc1`, the “hERG current change (%, negative = inhibition) at 10uM” value rises from -70.6% to 12.1%.

Going from `CC1CC(C)CN(c2ncnc3c2cnn3C)C1` (stereo not drawn) to `CC1CCCC(C)N1C(=O)Cn1c(=O)sc2ccccc21` (stereo not drawn), the “hERG current change (%, negative = inhibition) at 10uM” value rises from -69.8% to 0.375%.

Compared with `O=C(Nc1ccccc1)Nc1ccc(C(=O)N2CCOCC2)cc1`, `O=C(Nc1ccc2c(c1)OCCO2)c1cc(-c2ccccc2)nc2ccccc12` is lower in “hERG current change (%, negative = inhibition) at 10uM” value: 21.6% for the first, 9.23% for the second.

Compared with `Cc1noc(C)c1COc1ccccc1C(=O)NNC(=O)c1ccccc1`, `CC(/C=C/C=C/c1ccccc1)=N/NC(=O)CNc1ccccc1C` is higher in “hERG current change (%, negative = inhibition) at 10uM” value: -9.18% for the first, 18.1% for the second.

First: CCC(C)C(NC(=O)CCCNC(=O)CCC(=O)OC1O[C@H]2OC3(C)CC[C@H]4[C@H](C)CCC(C1C)C24OO3)C(=O)O (stereo partly drawn)
Second: CCOC(=O)c1cc(C)sc1NC(=O)CN1CCN(C(=O)C2CCCO2)CC1 (stereo not drawn)
The “hERG current change (%, negative = inhibition) at 10uM” value of the first is higher: 4.12% for the first, -31% for the second.

First: O=C1CCc2cc(S(=O)(=O)N3CCCC3C(=O)N3CCN(c4ccccc4F)CC3)ccc2N1 (stereo not drawn)
Second: COc1ccccc1OCCNC(=O)c1cccc(S(=O)(=O)N2CCN(C)CC2)c1
The “hERG current change (%, negative = inhibition) at 10uM” value of the first is lower: -14.5% for the first, 5.31% for the second.

Compared with `O=C(Nc1nccs1)C1C2CC3OC(=O)C1C3C2` (stereo not drawn), `O=C(Nc1ccnn1C1CCN(C(=O)Cc2cccc(Cl)c2)CC1)C1CC1` is lower in “hERG current change (%, negative = inhibition) at 10uM” value: 12.5% for the first, -7.34% for the second.

Going from `c1ccc(Sc2ccccn2)cc1` to `Clc1ccc(-c2ccccc2)cn1`, the “hERG current change (%, negative = inhibition) at 10uM” value falls from 9.32% to -3.24%.

Going from `c1ccc(-c2ccccc2-c2nc(-c3ccncc3)no2)cc1` to `CC(C)N(Cc1nc(-c2ccccc2)no1)C(=O)c1ccc(Cl)cc1`, the “hERG current change (%, negative = inhibition) at 10uM” value falls from 1.37% to -35.1%.

Compared with `NC(=O)c1ccccc1OC1CCC1`, `NC(=O)c1cc(Cc2ccccc2)sc1NC(=O)c1ccco1` is lower in “hERG current change (%, negative = inhibition) at 10uM” value: 19% for the first, -13.6% for the second.

First: Cn1nc(C(C)(C)C)cc1C(=O)NCc1ccc2c(c1)OCO2
Second: Cc1cc(C)cc(NCc2cc3c(cc2[N+](=O)[O-])OCO3)c1
The “hERG current change (%, negative = inhibition) at 10uM” value of the first is higher: 11.3% for the first, -14.6% for the second.

Compared with `Cc1ccc(S(=O)(=O)NC(=O)Nc2ccc(N(C)C)cc2)cc1`, `CCOC(=O)N1CCC(N2Cc3cccc(C(=O)Nc4ccc(S(=O)(=O)N(CC)CC)cc4)c3C2=O)CC1` is higher in “hERG current change (%, negative = inhibition) at 10uM” value: 9.23% for the first, 16.3% for the second.

First: Cc1ccccc1C1c2[nH]c3ccccc3c2CCN1Cc1cccn1-c1ncccn1 (stereo not drawn)
Second: COc1ccccc1C1=NC(c2ccccc2)CN1c1ccccc1 (stereo not drawn)
The “hERG current change (%, negative = inhibition) at 10uM” value of the first is lower: -46.3% for the first, 18.4% for the second.

First: Nc1ccc(S(=O)(=O)N2CCCC2)cc1
Second: O=C(CC1CCCC1)NCCS(=O)(=O)N1CCN(c2ccc(F)cc2)CC1
The “hERG current change (%, negative = inhibition) at 10uM” value of the first is higher: -2.88% for the first, -15.1% for the second.

Going from `COc1ccc(CN2CCc3c([nH]c4ccccc34)C2)cc1Br` to `COc1cc2c(cc1OC)CN(CC(=O)Nc1ccccc1C#N)CC2`, the “hERG current change (%, negative = inhibition) at 10uM” value rises from -45.9% to -11.5%.

First: Nc1nc(-c2ccc(-c3ccccc3)cc2)cs1
Second: O=C1CN2C(=Nc3ccc(Cl)cc3C2c2ccccc2)CN1 (stereo not drawn)
The “hERG current change (%, negative = inhibition) at 10uM” value of the first is higher: 23.2% for the first, -12.6% for the second.

Going from `COCc1cc(=O)[nH]c(SCCS(=O)(=O)c2ccc(C)cc2)n1` to `COCCN(Cc1cccs1)S(=O)(=O)c1ccc(-c2ccc(=O)[nH]n2)s1`, the “hERG current change (%, negative = inhibition) at 10uM” value falls from 11.7% to -46.8%.

Compared with `CCN(CCNC(=O)Cn1cc2c(n1)CCCC2)c1ccccc1`, `CCc1nc(SCC(=O)Nc2nc3c(s2)CCCC3)c2ccccc2n1` is lower in “hERG current change (%, negative = inhibition) at 10uM” value: -6.15% for the first, -11.3% for the second.

Compared with `C/C=C(\C)c1nnc(NC(=O)C(C)C)s1`, `Cc1cc(C)n(CC(=O)NNC(=O)CC(C)c2ccccc2)n1` (stereo not drawn) is higher in “hERG current change (%, negative = inhibition) at 10uM” value: 0.695% for the first, 7% for the second.

Going from `O=C(/C=C1\SC(=O)N(CC(=O)Nc2ccc(Cl)cc2)C1=O)Nc1ccc(F)cc1` to `Cc1ccccc1N1CCN(CCCN2C(=O)CC(=C(c3ccccc3)c3ccccc3)C2=O)CC1`, the “hERG current change (%, negative = inhibition) at 10uM” value falls from 7.52% to -35.7%.

First: COc1ccc([N+](=O)[O-])cc1NCc1cccc([N+](=O)[O-])c1
Second: CC(C)(C)SC(C(=O)N1CCOCC1)c1ccc(Br)cc1 (stereo not drawn)
The “hERG current change (%, negative = inhibition) at 10uM” value of the first is lower: -62.6% for the first, -7.39% for the second.

Compared with `CC1(C)NC(=O)NC2(C)NC(=O)NC(C)(C)C12` (stereo not drawn), `CS(=O)(=O)N1CCCC(C(=O)NCCCN2CCOCC2)C1` (stereo not drawn) is lower in “hERG current change (%, negative = inhibition) at 10uM” value: 3.62% for the first, -3.43% for the second.

For `Nc1nonc1C(=O)NCCN=Cc1ccccc1O`, the “hERG current change (%, negative = inhibition) at 10uM” value was 17.3%.
